The source of these data is ChEMBL document CHEMBL1201862, “PubChem BioAssay data set” (2004).

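Five concentrations, 48 hours, 96-well plates. GI50 is the concentration that inhibits growth by half.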 Activity calls are given as the source filed them. Rule as the data show it: active = GI50 up to about 1.1 µM and inactive = higher. Bounds are passed on as bounds.

The subject of the test is NCI-H322M. As to the kind of experiment: growth of human tumour cells (NCI), 48 h.
With `NC(Cc1c[nH]c2ccc([N+](=O)[O-])cc12)C(=O)O` (centres undefined), the GI50 was inactive: > 100 µM.

In the case of `Cc1nc(-n2nc(-c3ccccc3)cc2-c2ccccc2)sc1C(=O)/C=C/c1ccccc1`, the GI50 is inactive: > 100 µM.

On to `Nc1ccc(S(=O)(=O)NCc2nccs2)cc1`, for which the GI50 is inactive: 16.9 µM.

In the case of `COc1cc(CC(=O)O)c([N+](=O)[O-])cc1OC`, the GI50 is inactive: > 100 µM.

Take `CC(N/N=C(\S)N1CCN(c2ccccn2)CC1)c1cccc[n+]1[O-]` (centres undefined): the GI50 was inactive: 23.6 µM.

Take `CCCCCCCCCCCCCCCc1nnc(SCC(=O)O)[nH]1`: the GI50 was inactive: > 100 µM.

For the compound `COC(=O)c1c(CC(Cc2ccc3c(c2)CCCC3)C(=O)OC)ccc2c1CCCC2` (centres undefined), the GI50 was inactive: > 100 µM.

With `Cn1c(COC(=O)Nc2ccccc2)c(COC(=O)Nc2ccccc2)c2ccc3cc(Cl)c(Cl)cc3c21`, the GI50 was inactive: 13.1 µM.

Take `CC(=O)Nc1ccc(C(=O)N2N=C(C)/C(=C\c3c(O)ccc4ccccc34)C2=O)cc1`: the GI50 is inactive: > 100 µM.

Regarding `Brc1ccccc1-c1ncc(-c2ccccc2)o1`, the GI50 is inactive: 56.2 µM.

Turning to `Cc1c(C2Cc3ccccc3N2C(=O)/C=C\C(=O)O)c2ccccc2n1C` (centres undefined), the GI50 was inactive: 22.3 µM.

Consider `COc1cc(C2CC(C)(O)Oc3cc4c(cc32)OCO4)cc(OC)c1OC` (centres undefined), for which the GI50 was active: 0.474 µM.

`COc1cc(/C=C2/SC(c3ccccc3)N(c3cccc(Cl)c3)C2=O)cc(OC)c1OC` (centres undefined): the GI50 was inactive: 69.3 µM.

As for `O=C(COC(=O)c1cccc2c(=O)c3ccccc3[nH]c12)Nc1ccc(C(=O)O)cc1`, the GI50 is inactive: 63.2 µM.

Consider `CN1C(=O)C(O)CC1c1ccc(C(F)(F)F)cc1` (centres undefined), for which the GI50 was inactive: > 100 µM.

As to `O=c1[nH]c(=O)n(COCCO)c2ccsc12`, the GI50 was inactive: > 100 µM.

In the case of `CN1C(=O)c2ccccc2NC(=O)c2cnn(C)c21`, the GI50 was inactive: > 100 µM.

For the compound `CC1(C)OCC(C2OC(On3nnc4ccc(Cl)cc43)C3OC(C)(C)OC23)O1` (centres undefined), the GI50 was inactive: > 100 µM.

For `C/C=C(\C)C(O)C(C)C(O)C/C=C(C)/C=C(\C)C/C(C)=C/C/C=C(\C)C(O)C(C)c1ccc(CCC)c(=O)o1` (centres undefined), the GI50 is inactive: 15.2 µM.

As for `CC(=O)OCC(OC(C)=O)C(OC(C)=O)C(/C=N/N(C(C)=O)S(=O)(=O)c1ccc(/C=C2\NC(=O)NC2=O)cc1)OC(C)=O` (centres undefined), the GI50 is inactive: > 100 µM.

In the case of `CC(C)(CO)CNc1nc(N)nc(Cl)c1/C=N/O`, the GI50 is inactive: 66.7 µM.

In the case of `O=C1/C(=C/C=C/c2ccccc2)N=C(c2ccccc2)N1C1Nc2cc3c(cc2S1)NC(N1C(=O)/C(=C/C=C/c2ccccc2)N=C1c1ccccc1)S3` (centres undefined), the GI50 is inactive: 73.5 µM.

Regarding `COc1ccc(/C=N\NC(=O)Nc2cccc3ccccc23)cc1`, the GI50 was inactive: 61.4 µM.

Take `O=S(=O)(N/N=C/c1cccc(/C=N/NS(=O)(=O)c2ccccc2)c1)c1ccccc1`: the GI50 is inactive: > 100 µM.

As for `COc1ccc(CC2Cc3ccccc3CCN2)cc1OC` (centres undefined), the GI50 is inactive: 25.4 µM.

As to `COc1c(C)c(C/C=C(\C)CCCC(C)CCCC(C)CCCC(C)C)c(OC)c2ccccc12` (centres undefined), the GI50 was inactive: > 100 µM.

In the case of `Nc1nc(N)c(CCCCc2ccccc2)c(C=O)n1`, the GI50 is inactive: 17.2 µM.

On to `O=C1C(N2CCN(CCOCCO)CC2)=C(Cl)C(=O)c2ncccc21`, for which the GI50 is inactive: > 10 µM.

Take `O=C(CN1CCOCC1)c1ccc2c(c1)oc(=O)n2CCN1CCCC1`: the GI50 is inactive: > 100 µM.

For `Cc1cccc(Nc2nn3c(=O)c4c5c(sc4nc3s2)CCCC5)c1`, the GI50 was inactive: > 100 µM.

Turning to `CC(C)OC(=O)c1ccc(NCC2=CC(=O)C=CC2=O)cc1`, the GI50 is inactive: 73.3 µM.

With `CCN(CC)C(=S)SS(=O)(=O)c1cccc(N)c1`, the GI50 was inactive: > 100 µM.

For the compound `COc1ccc(/C(=N\NC(=S)NN)C(c2ccc(OC)cc2)C2C(=O)Oc3ccccc32)cc1` (centres undefined), the GI50 is inactive: > 10 µM.

`O=C(Nc1ccccc1)N(CCN(Cc1ccccc1)C(=O)Nc1ccccc1)CCN(Nc1ccccc1)C(=O)Nc1ccccc1`: the GI50 was inactive: > 100 µM.

`C=C1C(=O)O[C@@H]2C[C@]3(C)[C@@H](C[C@H]12)[C@](C)(O)CC[C@@H]3O`: the GI50 was inactive: 94.6 µM.

In the case of `O=C1C=CC(=O)c2c1ccc1c3ccccc3n(-c3cccc([N+](=O)[O-])c3)c21`, the GI50 was inactive: > 10 µM.

With `CCCNC(=O)c1cc(NC(=O)c2cc(NC(=O)CCS(=O)(=O)OC)cn2C)cn1C`, the GI50 is inactive: 21.3 µM.

`CCOC(=O)c1cc(C#N)[nH]c1-c1ccsc1`: the GI50 is inactive: 33.9 µM.

For `O=C1c2cccc3cc([N+](=O)[O-])cc(c23)C(=O)N1Nc1ccc([N+](=O)[O-])cc1[N+](=O)[O-]`, the GI50 is inactive: 47.6 µM.

Regarding `COC(=O)C1=C(C(=O)OC)C23C=CC=CC24C(C(=O)OC)=C(C(=O)OC)C4C1C3` (centres undefined), the GI50 is inactive: > 100 µM.

For `C1=C2/CC[C@H](Sc3ccccc3)C2C2(CCCCC/1)OCCO2` (some centres undefined), the GI50 was inactive: 75.9 µM.

For `c1ccc2sc(C3(N4CCCCC4)CCCCCC3)cc2c1`, the GI50 was inactive: 21.2 µM.

Take `CSc1ncnc2c1ncn2C1OC(CO)C(O)OC1O` (centres undefined): the GI50 was inactive: 2.47 µM.

Turning to `COc1ccc(Oc2nc3cc(C(F)(F)F)ccc3nc2C(C)C)cc1`, the GI50 is inactive: 33.3 µM.

Take `COc1ccc(OC)c2sc(N3C(=O)/C(=C/c4ccc(N(C)C)cc4)N=C3c3ccccc3)nc12`: the GI50 was inactive: > 100 µM.

Take `CC1C=CC(=O)C(n2cc(F)c(=O)[nH]c2=O)O1` (centres undefined): the GI50 was inactive: 18.6 µM.

Turning to `C=CCNC1=NC(=O)C(CC(=O)Nc2cccc(Cl)c2)S1` (centres undefined), the GI50 is inactive: > 100 µM.

On to `O=C1[C@@H]2[C@@H](c3ccccc3)[C@]2(Cl)C(=O)[C@H]2[C@H](c3ccccc3)[C@@]12Cl`, for which the GI50 is inactive: > 100 µM.

Take `CCOC(=O)/C=C1\Oc2ccccc2C1(C)O` (centres undefined): the GI50 was inactive: > 100 µM.

For the compound `Cc1nc(C)c(N2CCN([N+](=O)[O-])CC2)c(O)n1`, the GI50 is inactive: > 100 µM.

With `c1ccc(Sc2nc(Sc3ccccc3)nc(Sc3ccccc3)n2)cc1`, the GI50 was inactive: 17.8 µM.

`COc1cc2ccc1-c1cc(ccc1O)CC1c3cc4c(cc3CCN1C)Oc1c(OC)cc3c(c1O4)C(C2)N(C)CC3` (centres undefined): the GI50 was inactive: 1.89 µM.

As for `C=C1CC(CC)(CCN2C(=O)c3ccccc3C2=O)OC1=O` (centres undefined), the GI50 was inactive: 28.8 µM.

`CCOP(=O)(OCC)C(F)(F)Cc1cnc(C)c2c1COC(C)(C)O2`: the GI50 was inactive: > 10 µM.

On to `O=C(CC(=O)c1cccc([N+](=O)[O-])c1)C(=O)Nc1nc([N+](=O)[O-])cs1`, for which the GI50 was inactive: > 100 µM.

Take `c1ccc(/N=C(/Nc2ccccc2)N2CCCC2)cc1`: the GI50 is inactive: > 100 µM.

For the compound `CCc1[nH]c(=O)c2oc3cc4ccccc4cc3c2c1C(=O)O`, the GI50 was inactive: > 10 µM.

For the compound `CN(C)c1ncnc2c1Cc1ccccc1C(=O)N2C`, the GI50 was inactive: > 100 µM.

Take `COC(=O)C(Cc1nc2ccccc2nc1O)C(=O)C(=O)Nc1ccc(F)cc1` (centres undefined): the GI50 was inactive: > 100 µM.

As for `C=C1C(=O)OC2CC(C)C3(O)CCC(=O)C3(C)CC12` (centres undefined), the GI50 is inactive: 59.3 µM.

On to `CC(C)(C)NNC(=O)/C(=C/c1ccc([N+](=O)[O-])cc1)NC(=O)c1ccccc1`, for which the GI50 is inactive: > 100 µM.

In the case of `O=c1[nH]/c(=C/c2ccc(OCc3ccccc3)cn2)c(=O)[nH]/c1=C/c1ccc(F)cc1`, the GI50 is active: 1.06 µM.

For the compound `O=C1CN2C(c3ccccc3)=NN(c3ccc([N+](=O)[O-])cc3)C2(c2ccccc2)c2cc(Cl)ccc2N1CC1CC1` (centres undefined), the GI50 was inactive: > 100 µM.

For `CCOc1cccc2[s+]snc12`, the GI50 is inactive: > 100 µM.

Turning to `O=C1c2c(Br)sc(Br)c2[C@H]2OC(=S)N[C@@H]12`, the GI50 was inactive: 15.4 µM.

With `CC(=O)C1=C(C)N(c2ccc(C)cc2)C2(O)C=CC(O)=C3C(=O)c4ccccc4C(=O)C312` (centres undefined), the GI50 is inactive: 21.3 µM.

Consider `NS(=O)(=O)c1cc(S(N)(=O)=O)c(NC(=O)N(c2ccccc2)c2ccccc2)c(Cl)c1Cl`, for which the GI50 is inactive: 26.6 µM.

For the compound `O=C1CCC(NC(=O)Cc2ccc(O)cc2)C(=O)N1` (centres undefined), the GI50 was inactive: > 2500 µM.

In the case of `Brc1ccc2c(c1)C1C(CO2)C(c2ccccc2)=NN1c1ccccc1` (centres undefined), the GI50 was inactive: > 100 µM.

`O=C(CC(C(=O)c1ccsc1)c1ccc2c(c1)OCO2)c1ccccc1` (centres undefined): the GI50 was inactive: > 100 µM.

As for `CCSCC(=O)N1CCc2c([nH]c3ccccc23)C1=O`, the GI50 is inactive: > 100 µM.

Consider `CCOC(=O)c1c(-c2ccc(OC)cc2)c(C#N)c(=S)n(C2OC(CO)C(O)C(O)C2O)c1C` (centres undefined), for which the GI50 was inactive: > 100 µM.

Consider `COc1ccc2c(c1OC)C(=O)N1C2=Cc2c(cc3c(c2OC)OCO3)CC1N(C)C` (centres undefined), for which the GI50 is inactive: > 100 µM.

Regarding `CC(C)(C)Cc1cc(O)ccc1O`, the GI50 is inactive: 46.5 µM.

Turning to `COC1(OC)C2(Cl)C(Cl)=C(Cl)C1(Cl)C1COCC12` (centres undefined), the GI50 is inactive: > 100 µM.

On to `COc1cccc2c1OC1c3ccccc3OCC1C2` (centres undefined), for which the GI50 is inactive: > 100 µM.

For `C=CC(C)(C)C1(CC(OC)OC)C(=O)N(C)c2ccccc21` (centres undefined), the GI50 is inactive: > 25 µM.

On to `CC(C)(C)N1Cc2ccccc2/C(=C/Sc2ccccc2)C1=O`, for which the GI50 was inactive: 16.4 µM.

For `Cc1cc(SCC(=O)c2ccc(Br)cc2)cc(C)[o+]1`, the GI50 was inactive: 32.3 µM.

In the case of `COc1cc(C2S/C(=C/c3ccccc3)C(=O)N2c2ccccn2)cc(OC)c1OC` (centres undefined), the GI50 is inactive: 41.3 µM.

With `CS(=O)(=O)N1CC(CCl)c2ccc(O)cc21` (centres undefined), the GI50 was inactive: 4.81 µM.

With `Cc1cn(C2CC(N(O)Cc3ccccc3)C(CO)O2)c(=O)[nH]c1=O` (centres undefined), the GI50 is inactive: > 100 µM.

`CCN(CCCl)CCNc1c2ccccc2nc2ccc(OC)cc12`: the GI50 was active: 0.689 µM.

With `CCc1nc(N)nc(N)c1-c1ccc(Cl)c([N+]#N)c1`, the GI50 is inactive: 56.2 µM.
